Data taken from publication doi:10.1101/2025.02.04.636395.
Numbering of substitutions follows the chain as printed. Results are given in words; binding and its absence hold for the method and conditions named. In cells and extracts the contact can be indirect. Some binding calls cover weakened binding; strength is not graded here. Where a sequence is shown, tags or fusion partners need not be part of it.

How the values were obtained:
Test in all cases: co-IP; GFP-trap (GFP-nanotrap agarose) from lysates of transfected HEK293T cells; lysis in 0.5% NP-40, 100 mM Tris-HCl pH 7.5 in PBS (in dH2O for GFP-SNX17); 1 h at 4 °C; western blot of endogenous Retriever subunits, CCC subunits and RAB32 or of co-expressed mCherry-LRMDA
GFP-RAB32 = molecular target: T1, GFP-RAB32 (UniProt Q13637)
T1 sequence: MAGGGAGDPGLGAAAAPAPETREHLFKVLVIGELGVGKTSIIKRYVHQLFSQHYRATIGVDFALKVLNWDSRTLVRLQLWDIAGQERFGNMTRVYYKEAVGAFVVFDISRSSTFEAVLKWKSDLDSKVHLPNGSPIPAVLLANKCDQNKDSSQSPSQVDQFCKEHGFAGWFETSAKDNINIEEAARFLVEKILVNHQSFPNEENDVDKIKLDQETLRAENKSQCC

GFP-RAB32 Q85L = molecular target: T2, GFP-RAB32 Q85L (UniProt Q13637)
T2 sequence: T1 sequence with Q85L

GFP-RAB32 T39N = molecular target: T3, GFP-RAB32 T39N (UniProt Q13637)
T3 sequence: T1 sequence with T39N

B1: mCherry-LRMDA (protein, UniProt A0A087WWI0 1-226)
chain: MAGLVVRGTQVSYIGQDCREIPEHLGRDCGHFAKRLDLSFNLLRSLEGLSAFRSLEELILDNNQLGDDLVLPGLPRLHTLTLNKNRITDLENLLDHLAEVTPALEYLSLLGNVACPNELVSLEKDEEDYKRYRCFVLYKLPNLKFLDAQKVTRQEREEALVRGVFMKVVKPKASSEDVASSPERHYTPLPSASRELTSHQGVLGKCRYVYYGKNSEGNRFIRDDQL
- binding (GFP-RAB32): binds
- binding (GFP-RAB32 Q85L): binds
- binding (GFP-RAB32 T39N): no binding
